Data on 20 molecules can be found in ChEMBL document CHEMBL5606460, “ASAP - DENV-2 NS2B-NS3 protease fluorescence single point” (2024).

SMILES strings stand for the structures. In all, about 2,000 compounds went through this assay and about 110 (5.5%) showed an effect of 50% or more. The list shows a part of the results.

The target in the assay is Genome polyprotein (dengue virus type 2) (UniProt P29990).
[1] abbreviates: Thailand/16681/1984, Concentration 25.0 uM, Number of replicates 1.0.

For the molecule `Cc1cnccc1NC(=O)c1csc(-c2ccco2)n1`, the inhibition (Thailand/16681/1984, Concentration 49.5 uM, Number of replicates 2.0, Standard deviation 3.467417096600098 %) is -3.43%; the inhibition (Thailand/16681/1984, Concentration 99.01 uM, Number of replicates 2.0, Standard deviation 2.201182046579419 %) is -3.24%; the inhibition (Thailand/16681/1984, Concentration 198.0 uM, Number of replicates 2.0, Standard deviation 2.9719336141272215 %) was -2.24%.
`O=C(Cn1ccc2cccnc21)N1CC[C@H](c2c[nH]c3ccccc23)C1`: the inhibition was 4.28% (Thailand/16681/1984, Concentration 49.5 uM, Number of replicates 2.0, Standard deviation 1.3049859583596561 %); 8.2% (Thailand/16681/1984, Concentration 99.01 uM, Number of replicates 2.0, Standard deviation 0.892571122073038 %); 16.1% (Thailand/16681/1984, Concentration 198.0 uM, Number of replicates 2.0, Standard deviation 0.11434810893272447 %).
`NCc1cccc(NC(=O)[C@@H](NC(=O)OCc2ccccc2)c2ccccc2)c1`: the inhibition (Thailand/16681/1984, Concentration 49.5 uM, Number of replicates 2.0, Standard deviation 1.0300513707602847 %) came to 0.869%; the inhibition (Thailand/16681/1984, Concentration 99.01 uM, Number of replicates 2.0, Standard deviation 0.7240873671299501 %) is 0.819%; the inhibition (Thailand/16681/1984, Concentration 198.0 uM, Number of replicates 2.0, Standard deviation 0.6193503939215136 %) turned out to be 0.644%.
On to `O=C(NCCc1nnc[nH]1)[C@@]1(c2ccc(F)cc2)CCCNC1`, for which the inhibition (Thailand/16681/1984, Concentration 50.0 uM, Number of replicates 2.0, Standard deviation 0.3761047678487402 %) is -0.092%; the inhibition (Thailand/16681/1984, Concentration 100.0 uM, Number of replicates 2.0, Standard deviation 0.4194597979190475 %) worked out at 0.419%; the inhibition (Thailand/16681/1984, Concentration 200.0 uM, Number of replicates 2.0, Standard deviation 0.44222117184721943 %) worked out at 1.04%.
Turning to `Cc1cccc(C)c1NC(=O)CN1CCN(C(=O)C2CCN(c3ccc(C=O)cc3)CC2)CC1`, the inhibition under setting [1] worked out at 12.2%.
For `C[C@@H](CCNC(=O)C1CCN(c2ccc(C=O)cc2)CC1)N1CCOCC1`, the inhibition under setting [1] amounted to 12.8%.
On the same count and under the same terms, then `CC1(C)[C@H]2CC[C@]1(C)[C@H](NC(=O)C1CCN(c3ccc(C=O)cc3)CC1)C2`, with 3.74%.
For the molecule `CNC(=O)c1nc(C)c(C)c(N2CC[C@@H](NC(=O)[C@H]3CCCc4[nH]cnc43)C2)n1`, the inhibition is, setting by setting: (Thailand/16681/1984, Concentration 49.5 uM, Number of replicates 2.0, Standard deviation 0.14110347627647063 %) 0.754%; (Thailand/16681/1984, Concentration 99.01 uM, Number of replicates 2.0, Standard deviation 0.06819124066710994 %) 1.32%; (Thailand/16681/1984, Concentration 198.0 uM, Number of replicates 2.0, Standard deviation 0.04668471539636497 %) 2.04%.
Consider `O=Cc1ccc(N2CCC(C(=O)N3CCN(CC4CCCCC4)CC3)CC2)cc1`, for which the inhibition under setting [1] was determined as 11.7%.
With `Cn1cc(NC(=O)c2ccccc2C(F)(F)F)c(-c2ccc3cn[nH]c3c2)n1`, the inhibition reads like this: (Thailand/16681/1984, Concentration 49.5 uM, Number of replicates 2.0, Standard deviation 3.8036353619602954 %) -3.54%; (Thailand/16681/1984, Concentration 99.01 uM, Number of replicates 2.0, Standard deviation 3.5509755418496134 %) -2.83%; (Thailand/16681/1984, Concentration 198.0 uM, Number of replicates 2.0, Standard deviation 2.7355953191530653 %) -4.39%.
Regarding `O=Cc1ccc(N2CCC(C(=O)N3CCN(c4ccc(O)cc4)CC3)CC2)cc1`, the inhibition under setting [1] amounted to 25.7%.
Consider `Cn1cc(NS(=O)(=O)c2ccc(Oc3ccccc3)cc2)cn1`, for which the inhibition is, setting by setting: (Thailand/16681/1984, Concentration 49.5 uM, Number of replicates 2.0, Standard deviation 2.601473805507212 %) -1.3%; (Thailand/16681/1984, Concentration 99.01 uM, Number of replicates 2.0, Standard deviation 1.6601793249753374 %) 0.407%; (Thailand/16681/1984, Concentration 198.0 uM, Number of replicates 2.0, Standard deviation 1.3349353403241033 %) 2.24%.
For the molecule `Cc1cc(CO)c2cccc(C[C@H](NC(=O)c3nc(N)n[nH]3)C(=O)O)c2n1`, the inhibition is, setting by setting: (Thailand/16681/1984, Concentration 49.95 uM, Number of replicates 2.0, Standard deviation 0.562102066171363 %) 7.82%; (Thailand/16681/1984, Concentration 99.9 uM, Number of replicates 2.0, Standard deviation 0.9519253487191718 %) 21.3%.
As to `CCn1ccnc(N2CC[C@@H](CC(N)=O)C2)c1=O`, the inhibition (Thailand/16681/1984, Concentration 49.5 uM, Number of replicates 2.0, Standard deviation 0.1964302765194489 %) worked out at 4.92%; the inhibition (Thailand/16681/1984, Concentration 99.01 uM, Number of replicates 2.0, Standard deviation 0.0724696515531478 %) was found to be 13.3%; the inhibition (Thailand/16681/1984, Concentration 198.0 uM, Number of replicates 2.0, Standard deviation 0.24982898488359928 %) was found to be 28.6%.
As to `Cc1cc(S(=O)(=O)NCCNC(=O)c2ccc(O)c(NC(=O)c3ccncc3F)c2C)c(C)s1`, the inhibition is -1.95% (Thailand/16681/1984, Concentration 49.5 uM, Number of replicates 2.0, Standard deviation 0.0696651159595359 %); -1.5% (Thailand/16681/1984, Concentration 99.01 uM, Number of replicates 2.0, Standard deviation 0.12517951182523615 %); 0.045% (Thailand/16681/1984, Concentration 198.0 uM, Number of replicates 2.0, Standard deviation 0.5034395957498385 %).
As to `O=Cc1ccc(N2CCC(C(=O)NCc3ccc(F)cc3C(F)(F)F)CC2)cc1`, the inhibition under setting [1] was 14.8%.
Regarding `COc1cccc(-c2ccccc2C(=O)Nc2cnn(C)c2)c1F`, the inhibition is -4.15% (Thailand/16681/1984, Concentration 49.5 uM, Number of replicates 2.0, Standard deviation 1.8718256674784317 %); -2.94% (Thailand/16681/1984, Concentration 99.01 uM, Number of replicates 2.0, Standard deviation 0.7301858896689309 %); -3.18% (Thailand/16681/1984, Concentration 198.0 uM, Number of replicates 2.0, Standard deviation 2.4339528531715073 %).
Regarding `CC(C)(CO)NC(=O)c1cc(Cl)cc(NCc2cccc(Oc3ccccn3)c2)c1`, under “Thailand/16681/1984, Concentration 49.5 uM, Number of replicates 2.0, Standard deviation 0.9055793253974403 %”, the inhibition is -9.2%.
`C[C@]12CC3CC(NC(=O)C4CCN(c5ccc(C=O)cc5)CC4)(C1)C[C@](C)(C3)C2`: the inhibition under setting [1] stood at 15.8%.
Regarding `CNC(=O)[C@@H](C)CNS(=O)(=O)c1ccc(Oc2ccccc2Cl)cc1`, the inhibition (Thailand/16681/1984, Concentration 49.5 uM, Number of replicates 2.0, Standard deviation 0.8337442367954725 %) was -0.747%; the inhibition (Thailand/16681/1984, Concentration 99.01 uM, Number of replicates 2.0, Standard deviation 0.25212885411314173 %) amounted to 0.957%; the inhibition (Thailand/16681/1984, Concentration 198.0 uM, Number of replicates 2.0, Standard deviation 0.23111814436827896 %) amounted to 2.51%.

The inhibition is the change of the read-out against control, counted positive when it falls.
